# From the supplement of paper PMC5919970
# Where “and” joins values, the source holds several entries; their conditions need not be identical. Equal entries are not always repeated. Over roughly 2,000 compounds, “fractional viability relative to vehicle” has its median near 0.91; the lowest 2% begin near 0.045. The list shows a part of the results.
# System: TYKNU
# Test: fractional viability relative to vehicle; TYKNU is a high-grade serous ovarian cancer line; higher = less growth inhibition
# Details: 72 h
# Outline: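 TYKNU control cells or lentiCRISPRv2 knockout derivatives were plated at 500 cells per well in duplicate into drug-stamped 384-well plates holding a ~2100-compound library at 2 or 10 μM. Culture was in RPMI 1640 with 10% FBS at 37 °C in 5% CO2, with 72 h of drug treatment. Viability was measured by Cell Titer Glo luminescence, and the averaged duplicate treatment wells were normalised to duplicate control wells at the same plate position.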
# [1] = 2uM, genotype: DNM1L knockout (sgDNM1L #1)
# [2] = 2uM, genotype: sgCTRLA1 (non-targeting control)
# [3] = 10uM, genotype: DNM1L knockout (sgDNM1L #1)
# [4] = 10uM, genotype: sgCTRLA1 (non-targeting control)
SMILES,fractional viability [1],fractional viability [2],fractional viability [3],fractional viability [4]
Nc1cc(C(Cl)=C(Cl)Cl)c(S(N)(=O)=O)cc1S(N)(=O)=O [Clorsulon],0.803,1.15,0.714,1.18
Cc1ccccc1CN1C2=NCCN2C(=O)C2=C1CCN(Cc1ccccc1)C2 [TIC10 Analogue],0.814,1.06,0.67,0.91
C[C@H](CCC(=O)O)[C@H]1CC[C@H]2[C@@H]3[C@H](O)C[C@@H]4C[C@H](O)CC[C@]4(C)[C@H]3CC[C@]12C [Chenodeoxycholic Acid],0.966,1.13,0.963,0.92
C=CC(=O)Nc1cccc(Oc2nc(Nc3ccc(N4CCN(C)CC4)cc3OC)ncc2Cl)c1,0.754,0.963,0.345,0.492
O=C(/C=C/c1ccc(O)c(O)c1)OCCc1ccccc1 [Caffeic Acid Phenethyl Ester],0.971,0.949,0.493,0.467
CC(C)CC(CC(=O)NO)C(=O)N[C@@H](Cc1ccc2ccccc2c1)C(=O)N[C@@H](C)C(=O)NCCN (stereo partly drawn),0.816,0.895,0.788,0.647
COc1ccc([C@@H]2CC(=O)c3c(O)cc(O[C@@H]4O[C@H](CO)[C@@H](O)[C@H](O)[C@H]4O[C@@H]4O[C@@H](C)[C@H](O)[C@@H](O)[C@H]4O)cc3O2)cc1O [Neohesperidin],0.979,1.12,0.768,1.01
CC(=O)OCC(CCn1cnc2cnc(N)nc21)COC(C)=O [Famciclovir],0.976,1.12,0.716,1.09
C[C@@H]1CCN(C(=O)CC#N)C[C@@H]1N(C)c1ncnc2[nH]ccc12,0.918 and 1.15,1.15 and 1.27,0.956 and 0.862,1.1 and 1.2
C#CC[C@H](c1nc2cc(Cl)ccc2c(=O)n1Nc1ccccc1)N(CCCN)C(=O)c1cccc(Cl)c1F,0.249,0.25,0.0262,0.0115
CCOC(=O)Nc1cc(-c2ccc(C)c(NS(C)(=O)=O)c2)nn2c(C)nnc12 [Bromosporine],0.604,0.985,0.235,0.197
Cc1cc2c(F)c(Oc3ncnn4cc(OC[C@@H](C)OC(=O)[C@H](C)N)c(C)c34)ccc2[nH]1,0.797,0.89,0.458,0.444
O=S(=O)(O)NC1CCCCC1 [Cyclamic  acid],1.04,1.15,0.844,1.1
COc1ccc([C@]2(C#N)CC[C@@H](C(=O)O)CC2)cc1OC1CCCC1 [Cilomilast],0.977,1.1,0.843,1.15
COCC[n+]1c2c(n(Cc3cnccn3)c1C)C(=O)c1ccccc1C2=O [YM155 (Sepantronium Bromide)],0.0411,0.0393,0.0214,0.0241
O=C(NCCO)c1cccc(-c2cc(Nc3ccc(OC(F)(F)F)cc3)ncn2)c1,0.807,1,0.555,0.573
Nc1ccn([C@H]2CC[C@@H](CO)O2)c(=O)n1 [Zalcitabine],0.987,1.07,0.928,1.07
CCc1cc(Nc2nccc(-c3c(-c4ccc(OC)c(C(=O)Nc5c(F)cccc5F)c4)nc4ccccn34)n2)c(OC)cc1N1CCC(N2CCN(S(C)(=O)=O)CC2)CC1,1.12,1.04,0.72,0.915
COc1cccc(-c2cc(=O)c3ccccc3o2)c1N,1.19,1.1,1.17,0.967
C=CCNC(N)=S [Allylthiourea],1.12,1.1,0.797,1.07
CNC(=O)c1cccc(-c2ccc3c(N4CCOC[C@@H]4C)nc(N4CCOC[C@@H]4C)nc3n2)c1,0.277,0.218,0.201,0.237
CN(C)CCOC(C)(c1ccccc1)c1ccccn1 (stereo not drawn) [Doxylamine Succinate],0.893,1.15,0.871,1.09
COc1cc2nccc(Oc3ccc(NC(=O)Nc4cc(C)on4)c(Cl)c3)c2cc1OC [Tivozanib (AV-951)],1.07,0.945,0.592,0.594
CC(C)(C#N)c1cc(Cn2cncn2)cc(C(C)(C)C#N)c1 [Anastrozole],0.925,1.08,0.909,1.02
COc1cccc(-n2c(=O)[nH]c3cc(Cl)n(-c4ccc(-c5cccc(OC)c5O)cc4)c3c2=O)c1,0.844,1.02,0.857,0.918
C[C@@H](O)[C@H]1C(=O)N2C(C(=O)O)=C(S[C@@H]3CN[C@H](CNS(N)(=O)=O)C3)[C@H](C)[C@H]12 [Doripenem Hydrate],1.12,1.17,0.93,1
OC(CNCC(O)C1CCc2cc(F)ccc2O1)C1CCc2cc(F)ccc2O1 (stereo not drawn) [Nebivolol],0.798,0.981,0.276,0.606
